Patent US20190263932A1
Numbering of substitutions follows the chain as printed. Blank lines part the entries; values can stand above or below the binder they belong to.

Target: human TrkA receptor expressed in transfected 3T3 fibroblast cells (human), P04629
Assay: cell-based or functional assay

human TrkA receptor expressed in transfected 3T3 fibroblast cells (human), P04629, sequence (P04629 33-796): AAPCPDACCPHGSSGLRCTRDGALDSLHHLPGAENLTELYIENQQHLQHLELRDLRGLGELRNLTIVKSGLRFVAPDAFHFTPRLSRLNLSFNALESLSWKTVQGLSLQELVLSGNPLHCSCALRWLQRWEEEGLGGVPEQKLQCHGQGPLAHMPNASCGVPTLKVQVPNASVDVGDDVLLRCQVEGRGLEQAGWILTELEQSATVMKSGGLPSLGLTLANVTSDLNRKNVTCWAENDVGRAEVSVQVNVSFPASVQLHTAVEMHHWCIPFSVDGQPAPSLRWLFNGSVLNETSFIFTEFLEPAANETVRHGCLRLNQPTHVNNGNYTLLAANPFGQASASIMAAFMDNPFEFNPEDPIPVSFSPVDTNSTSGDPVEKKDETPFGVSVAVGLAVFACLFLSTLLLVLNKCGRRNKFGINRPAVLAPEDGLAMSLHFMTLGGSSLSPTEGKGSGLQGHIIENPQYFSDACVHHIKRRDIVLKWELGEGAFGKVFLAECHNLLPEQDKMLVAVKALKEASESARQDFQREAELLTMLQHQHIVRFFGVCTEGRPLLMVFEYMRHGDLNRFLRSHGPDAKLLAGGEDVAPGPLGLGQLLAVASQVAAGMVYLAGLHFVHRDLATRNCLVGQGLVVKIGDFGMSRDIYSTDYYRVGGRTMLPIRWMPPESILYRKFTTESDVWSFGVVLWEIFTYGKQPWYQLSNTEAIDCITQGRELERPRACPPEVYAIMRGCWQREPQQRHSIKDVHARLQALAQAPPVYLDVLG

% Max Inhibition, pTrkA: 86%
% Max stimulation, pTrkA: 15%
EC50 (nM), pTrkA: 0.13 nM
IC50 (nM), pTrkA: 0.77 nM
Internalized fluorescence per cell, normalized to total antibody levels, hTrkA 3T3: 33.4%
pTrkA counts per second, 0.1 pM mAb, no NGF (counts per second): 132000
pTrkA counts per second, 1 pM mAb, no NGF (counts per second): 156000
pTrkA counts per second, 10 pM mAb, no NGF (counts per second): 161000
pTrkA counts per second, 100 pM mAb, no NGF (counts per second): 205000
pTrkA counts per second, 1 nM mAb, no NGF (counts per second): 404000
pTrkA counts per second, 10 nM mAb, no NGF (counts per second): 473000
pTrkA counts per second, 100 nM mAb, no NGF (counts per second): 385000
pTrkA counts per second, 1 uM mAb, no NGF (counts per second): 349000
pTrkA counts per second, NGF +0.1 pM mAb (counts per second): 1.2e+06
pTrkA counts per second, NGF +1 pM mAb (counts per second): 1.44e+06
pTrkA counts per second, NGF +10 pM mAb (counts per second): 1.54e+06
pTrkA counts per second, NGF +100 pM mAb (counts per second): 1.21e+06
pTrkA counts per second, NGF +1 nM mAb (counts per second): 791000
pTrkA counts per second, NGF +10 nM mAb (counts per second): 571000
pTrkA counts per second, NGF +100 nM mAb (counts per second): 390000
pTrkA counts per second, NGF +1 uM mAb (counts per second): 341000
B1: mAb A (antibody, human IgG4 S228P, kappa, F234A L235A)
heavy: EVQLVESGGGLVKPGGSLRLSCAASGFTFSGVSINWVRQAPGKGLEWVSSETTSSGTIYYADSVKGRFTISRDNAKNSLYLQMNSLRAEDTAVYYCARSYYYGMDVWGQGTTVTVSSASTKGPSVFPLAPCSRSTSESTAALGCLVKDYFPEPVTVSWNSGALTSGVHTFPAVLQSSGLYSLSSVVTVPSSSLGTKTYTCNVDHKPSNTKVDKRV[human IgG4 Fc with S228P F234A L235A (EU numbers) not shown]
light: DIVMTQTPLSSPVTLGQPASISCRSSQSLVHRNGNTYLSWLQQRPGQPPRLLIYKISNRFSGVPDRFSGSGAGTDFTLKISRVEAEDVGVYYCMQARQFPLTFGGGTKVEIKRTVAAPSVFIFPPSDEQLKSGTASVVCLLNNFYPREAKVQWKVDNALQSGNSQESVTEQDSKDSTYSLSSTLTLSKADYEKHKVYACEVTHQGLSSPVTKSFNRGEC

% Inh., Human pTrkA, second experiment: 77%
% Inh., Human pTrkA, third experiment: 74%
% Max Inhibition, pTrkA: 88%
% Stim., Human pTrkA, first experiment: < 15%
% Stim., Human pTrkA, second experiment: 18%
% Stim., Human pTrkA, third experiment: 36%
EC50 (nM), Human pTrkA, second experiment: 0.46 nM
EC50 (nM), Human pTrkA, third experiment: 0.35 nM
IC50 (nM), Human pTrkA, second experiment: 0.84 nM
IC50 (nM), Human pTrkA, third experiment: 1.07 nM
IC50 (nM), pTrkA: 0.58 nM
pTrkA counts per second, 0.1 pM mAb, no NGF (counts per second): 433000
pTrkA counts per second, 1 pM mAb, no NGF (counts per second): 559000
pTrkA counts per second, 10 pM mAb, no NGF (counts per second): 561000
pTrkA counts per second, 100 pM mAb, no NGF (counts per second): 777000
pTrkA counts per second, 1 nM mAb, no NGF (counts per second): 313000
pTrkA counts per second, 10 nM mAb, no NGF (counts per second): 542000
pTrkA counts per second, 100 nM mAb, no NGF (counts per second): 487000
pTrkA counts per second, 1 uM mAb, no NGF (counts per second): 367000
pTrkA counts per second, +mAb 1 hr (1 uM), no NGF (counts per second): 46600
pTrkA counts per second, +mAb 24 hr (1 uM), no NGF (counts per second): 45300
pTrkA counts per second, NGF +1 pM mAb (counts per second): 4.34e+06
pTrkA counts per second, NGF +10 pM mAb (counts per second): 3.44e+06
pTrkA counts per second, NGF +100 pM mAb (counts per second): 3.97e+06
pTrkA counts per second, NGF +1 nM mAb (counts per second): 1.07e+06
pTrkA counts per second, NGF +10 nM mAb (counts per second): 717000
pTrkA counts per second, NGF +100 nM mAb (counts per second): 446000
pTrkA counts per second, NGF +1 uM mAb (counts per second): 438000
pTrkA counts per second, NGF + mAb 1 hr (1 uM) (counts per second): 81500
pTrkA counts per second, NGF + mAb 24 hr (1 uM) (counts per second): 78200
B2: mAb B (antibody, human IgG4 S228P, kappa, F234A L235A)
heavy: B1 heavy
light: B1 light with N33A

% Max Inhibition, pTrkA: 77%
% Max stimulation, pTrkA: 23%
EC50 (nM), pTrkA: 0.075 nM
IC50 (nM), pTrkA: 0.8 nM
pTrkA counts per second, 0.1 pM mAb, no NGF (counts per second): 242000
pTrkA counts per second, 1 pM mAb, no NGF (counts per second): 251000
pTrkA counts per second, 10 pM mAb, no NGF (counts per second): 286000
pTrkA counts per second, 100 pM mAb, no NGF (counts per second): 389000
pTrkA counts per second, 1 nM mAb, no NGF (counts per second): 513000
pTrkA counts per second, 10 nM mAb, no NGF (counts per second): 534000
pTrkA counts per second, 100 nM mAb, no NGF (counts per second): 522000
pTrkA counts per second, 1 uM mAb, no NGF (counts per second): 420000
pTrkA counts per second, NGF +0.1 pM mAb (counts per second): 2.27e+06
pTrkA counts per second, NGF +1 pM mAb (counts per second): 1.92e+06
pTrkA counts per second, NGF +10 pM mAb (counts per second): 2.4e+06
pTrkA counts per second, NGF +100 pM mAb (counts per second): 2.34e+06
pTrkA counts per second, NGF +1 nM mAb (counts per second): 1.09e+06
pTrkA counts per second, NGF +10 nM mAb (counts per second): 620000
pTrkA counts per second, NGF +100 nM mAb (counts per second): 511000
pTrkA counts per second, NGF +1 uM mAb (counts per second): 394000
B3: mAb C (antibody, human IgG4 S228P, kappa, F234A L235A)
heavy: B1 heavy
light: B1 light with N33Q
